The values that follow come from PubChem BioAssay AID360 (National Center for Advancing Translational Sciences (NCATS), 2006).

About 550 (1.1%) of roughly 48,000 compounds were called active. Inconclusive results (about 4%) are left out. Rule as the data show it: active = potency below about 15 µM; inconclusive = mostly about 16 µM to 33 µM; inactive = weaker than that. This is one part of the list. Where only a bound is given, the exact number is not on record here.
Potency is read from the fitted curve at half-maximal effect.

Chain of UniProt P04062 (P04062 whole entry, looked up): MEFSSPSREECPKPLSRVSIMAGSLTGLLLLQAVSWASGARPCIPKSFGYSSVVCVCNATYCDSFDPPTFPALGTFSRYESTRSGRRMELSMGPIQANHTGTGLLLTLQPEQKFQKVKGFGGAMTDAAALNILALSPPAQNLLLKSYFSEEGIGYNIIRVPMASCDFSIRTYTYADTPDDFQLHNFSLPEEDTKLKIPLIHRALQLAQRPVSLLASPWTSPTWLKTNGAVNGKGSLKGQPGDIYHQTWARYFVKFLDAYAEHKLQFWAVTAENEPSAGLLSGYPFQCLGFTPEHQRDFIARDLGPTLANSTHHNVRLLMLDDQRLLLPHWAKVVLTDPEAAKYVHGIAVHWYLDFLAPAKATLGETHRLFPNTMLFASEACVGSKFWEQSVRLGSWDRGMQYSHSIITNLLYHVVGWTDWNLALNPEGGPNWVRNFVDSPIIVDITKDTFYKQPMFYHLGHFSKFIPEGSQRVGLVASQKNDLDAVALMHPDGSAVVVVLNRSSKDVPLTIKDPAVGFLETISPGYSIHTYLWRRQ

For the experiment, the target named is Lysosomal acid glucosylceramidase (Homo sapiens) (UniProt P04062). As to the kind of experiment: Glucocerebrosidase.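 Also: the screen sought inhibitors.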 Conditions: purified enzyme, resorufin glucoside fluorescence (screen aimed at inhibitors), 20 min. The method in brief:
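Normal human glucocerebrosidase (0.2 nM final) was assayed with resorufin β-D-glucopyranoside (30 uM final) in 50mM citric acid/KH2PO4, 10mM sodium taurocholate, 0.01% tween-20, pH 5.9. Compounds were titrated; fluorescence (Ex 548, Em 600) read after 20 min at RT.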
On to `Cc1ccc2cccc(NC(=O)C(F)(F)F)c2n1`, for which the Potency was inactive: > 76.9 µM.

Regarding `c1ccc2c(c1)nc1n2C2(N3CCOCC3)CCCC2C1N1CCOCC1` (stereo not drawn), the Potency is inactive: > 76.9 µM.

For the compound `CCc1ccc(NC2CC(=O)N(c3ccc(OC)cc3OC)C2=O)cc1` (stereo not drawn), the Potency is inactive: > 76.9 µM.

With `Cc1ccnc(NC(=O)CCC2COc3ccccc3O2)c1` (stereo not drawn), the Potency was inactive: > 76.9 µM.

With `CS(=O)(=O)N1CCCC(C(=O)NCCCN2CCc3ccccc3C2)C1` (stereo not drawn), the Potency was inactive: > 76.9 µM.

Turning to `CC1CC(C)CN(CCCNC(=O)C2CCCN(c3nnc(N4CCCC4=O)s3)C2)C1` (stereo not drawn), the Potency was inactive: > 76.9 µM.

Consider `CCc1nc(Nc2ccncc2)c2oc3ccccc3c2n1`, for which the Potency is inactive: > 76.9 µM.

As to `CCc1ccccc1-n1c(SCC(=O)NC)nnc1-c1cccnc1`, the Potency was inactive: > 76.9 µM.

In the case of `CC1CCN(C(=O)CSc2ccc(-c3ccc(F)cc3)nn2)CC1`, the Potency was inactive: > 76.9 µM.

Take `O=C(OCC1CC(c2ccccn2)=NO1)c1ccc(Br)cc1` (stereo not drawn): the Potency is inactive: > 76.9 µM.

For the compound `Cc1ccc(-c2noc(CCC(=O)NCCN3CCN(Cc4ccccc4)CC3)n2)cc1`, the Potency was inactive: > 76.9 µM.

For the compound `CN1CCCC(OC(=O)CCCC(=O)OC2CCCN(C)C2)C1` (stereo not drawn), the Potency was inactive: > 76.9 µM.

With `Cn1c(=O)n(Cc2ccccc2)c(=O)c2c1nc1n2CCCN1Cc1ccccc1`, the Potency is inactive: > 76.9 µM.

For `O=C1N(c2ccc(Cl)c(Cl)c2)CN(Cc2ccccc2)CN1n1cnnc1`, the Potency is inactive: > 76.9 µM.

For `CC1CCN(C(=O)N[C@@H](Cc2ccccc2)C(=O)O)CC1`, the Potency was inactive: > 76.9 µM.

On to `CCSC(=Nc1ccccc1)C1=C(O)COC1=O`, for which the Potency was inactive: > 76.9 µM.

Regarding `CCOc1cc2[nH]c(=O)n(CC3CCC(C(=O)NCCC(C)C)CC3)c(=O)c2cc1OCC` (stereo not drawn), the Potency was inactive: > 76.9 µM.

On to `CN1CCN(Cc2cc(=O)oc3ccc(Cl)cc23)CC1`, for which the Potency is inactive: > 76.9 µM.

With `CS(=O)(=O)c1ccc(N2CCOCC2)c(S(C)(=O)=O)c1`, the Potency was inactive: > 76.9 µM.

On to `Cc1ccc(Nc2nc(N)nc(CN3CCN(C)CC3)n2)cc1C`, for which the Potency is inactive: > 76.9 µM.

As to `CCOC(=O)c1[nH]c(C)c(C(=O)OCc2c(C)noc2C)c1C`, the Potency was inactive: > 76.9 µM.

With `CCn1c(SCC(=O)NCC2CCCO2)nnc1-c1c[nH]c2ccccc12` (stereo not drawn), the Potency is inactive: > 76.9 µM.

`CCCC(c1nnnn1Cc1ccco1)N1CCN(c2cc(Cl)ccc2C)CC1` (stereo not drawn): the Potency was inactive: > 76.9 µM.

`O=C(NC1CCCCCC1)C1c2ccccc2C(=O)N1CCCN1CCOCC1` (stereo not drawn): the Potency is inactive: > 76.9 µM.

`O=C(c1ccc(NS(=O)(=O)c2ccccc2)cc1)N1CCCC1`: the Potency is inactive: > 76.9 µM.

For `COC(=O)Oc1nsnc1N1CCOCC1`, the Potency is inactive: > 76.9 µM.

`COC(=O)c1ccc(NC(=O)CSc2nncn2C)cc1`: the Potency was inactive: > 76.9 µM.

As for `CCCCn1cc(SCC(=O)O)c2ccccc21`, the Potency was inactive: > 76.9 µM.

Take `CCCNC(=O)NC(=O)CSc1nc2ccccc2n1CC(C)C`: the Potency was inactive: > 76.9 µM.

As for `CCSc1nnc(NC(=O)CSc2nnc(Cc3cccn3C)n2-c2ccc(C)cc2)s1`, the Potency was inactive: > 76.9 µM.

In the case of `CCN(CC)C(=O)CSc1nc2cc3c(cc2c(=O)n1Cc1ccc2c(c1)OCO2)OCO3`, the Potency was inactive: > 76.9 µM.

As for `CCCc1ncc(C(=O)c2ccc(OC)cc2)n1C`, the Potency was inactive: > 76.9 µM.

With `CC1=CC(C)C2C(=O)N(CCCN(C)C)C(=O)C2C1` (stereo not drawn), the Potency is inactive: > 76.9 µM.

As to `Cc1ccc(S(=O)(=O)CC2CSc3nc(N)cc(=O)n32)cc1` (stereo not drawn), the Potency was inactive: > 76.9 µM.

Turning to `Cc1cccc(NC(=O)c2cc(S(=O)(=O)NCc3ccco3)ccc2F)c1C`, the Potency is inactive: > 76.9 µM.

Turning to `O=c1cnn(-c2ccccc2)c(-c2ccccc2)c1`, the Potency is inactive: > 76.9 µM.

With `CCCn1cc(SCC(=O)NCc2ccco2)c2ccccc21`, the Potency was inactive: > 76.9 µM.

In the case of `Cc1cc(C)c(C#N)c(N2CCSCC2)n1`, the Potency was inactive: > 76.9 µM.

On to `Cc1cc(C)nc(N(C#N)CCOc2ccccc2)n1`, for which the Potency is inactive: > 76.9 µM.

With `O=C(NCC1CCCO1)c1ccc(N2CCCCC2)nc1` (stereo not drawn), the Potency was inactive: > 76.9 µM.

`COc1cc(CC(=O)Nc2sccc2C(N)=O)cc(OC)c1OC`: the Potency was inactive: > 76.9 µM.

With `COCCNC(=O)CSc1nc2cc(OC)c(OC)cc2c(=O)n1Cc1ccco1`, the Potency is inactive: > 76.9 µM.

On to `CCc1cccc(NC(=O)CCS(=O)(=O)c2cccc3nonc23)c1`, for which the Potency is inactive: > 76.9 µM.

`Cc1ccnc2c1NC(=O)c1cccnc1N2C1CC1`: the Potency was inactive: > 76.9 µM.

On to `COC(=O)c1ccc(CSc2nc(C)nc3sc(C)c(C)c23)o1`, for which the Potency was inactive: > 76.9 µM.

`CCOC(=O)c1c(C)oc2c1c(C=NCC1CCCO1)c(O)c1ccccc12` (stereo not drawn): the Potency is inactive: > 76.9 µM.

As to `COCCn1c(SCC(=O)NCc2cccs2)nnc1-c1ccc(OC)cc1`, the Potency is inactive: > 76.9 µM.

In the case of `CC1CC(C)CN(C(=O)COc2ccc(-c3nnco3)cc2)C1` (stereo not drawn), the Potency was inactive: > 76.9 µM.

As to `COc1cccc(C(=O)N(c2ccc(OC)cc2OC)C2C=CS(=O)(=O)C2)c1` (stereo not drawn), the Potency entry is “inactive”.

Consider `COc1ccc(N2CCN(c3nc(=S)n(-c4ccccc4)c(C)c3C(C)=O)CC2)cc1`, for which the Potency was inactive: > 76.9 µM.

In the case of `CCOc1ncccc1C(=O)OCC(=O)c1cc(C)n(Cc2ccco2)c1C`, the Potency was inactive: > 76.9 µM.

In the case of `CCOc1ccc(C2C(C(=O)c3ccco3)=C(O)C(=O)N2CCCn2ccnc2)cc1` (stereo not drawn), the Potency was inactive: > 76.9 µM.

For `COCCn1c(COC)nc2ccccc21`, the Potency is inactive: > 76.9 µM.

As to `O=C(CSc1nnc(COc2ccccc2)n1Cc1ccco1)c1ccc(F)cc1`, the Potency was inactive: > 76.9 µM.

Turning to `CCOc1cc(S(=O)(=O)n2nc(C)cc2C)ccc1F`, the Potency was inactive: > 76.9 µM.

For the compound `CC(C)CCNC(=O)CCS(=O)(=O)c1cccc2nonc12`, the Potency was inactive: > 76.9 µM.

For `CC(C)(C)c1nc(NCC2CCCO2)c2nnn(Cc3ccccc3)c2n1` (stereo not drawn), the Potency is inactive: > 76.9 µM.

On to `CCOC(=O)c1ccc(Nc2ccc(-c3ccc(OC)c(OC)c3)nn2)cc1`, for which the Potency is inactive: > 76.9 µM.

Take `Cc1cc(NCCOCCO)n2ncc(-c3ccc(Cl)cc3)c2n1`: the Potency was inactive: > 76.9 µM.

In the case of `CS(=O)(=O)N1CCN(C(=O)c2ccccc2)C1`, the Potency was inactive: > 76.9 µM.

Regarding `COCCOC(=O)C1=C(C)N=C2SCCC(=O)N2C1/C=C/c1ccccc1` (stereo not drawn), the Potency was inactive: > 76.9 µM.

As for `CC(Sc1cccc(C(F)(F)F)c1)C(=O)NC(N)=O` (stereo not drawn), the Potency is inactive: > 76.9 µM.

Take `COc1ccc(S(=O)(=O)N2CCN(c3ncnc4c(-c5ccccc5)nsc34)CC2)cc1`: the Potency was inactive: > 76.9 µM.

For `O=c1[nH]cnc2cc(Cl)ccc12`, the Potency is inactive: > 76.9 µM.

In the case of `Cc1cc(-c2nnco2)c(C)n1-c1ccccc1`, the Potency was inactive: > 76.9 µM.

`CCCCNC(=O)C1CC(=O)N(CCC(C)C)C1` (stereo not drawn): the Potency was inactive: > 76.9 µM.

As to `COc1ccccc1OCc1ccc(C(=O)N2CCN3CCCC3C2)cc1` (stereo not drawn), the Potency is inactive: > 76.9 µM.

Regarding `CCN(CC)CCCOc1nc(C)nc2c1oc1ccccc12`, the Potency was inactive: > 76.9 µM.

`COc1cc(C(=O)N2CCC(NC(=O)C(Cc3ccccc3C)NC(C)=O)CC2)cc(OC)c1OC` (stereo not drawn): the Potency is inactive: > 76.9 µM.

In the case of `O=C(OCCN1CCOCC1)c1cccnc1`, the Potency is inactive: > 76.9 µM.

As to `CCn1cnc2cc(NCc3cccc(OC)c3O)ccc21`, the Potency is active: 13.9 µM.

Take `O=C(NC1CCCCC1)c1ccc(S(=O)(=O)NCc2cccnc2)cc1`: the Potency is inactive: > 76.9 µM.

On to `CCC1Oc2ccc(C)cc2N(CC(=O)NCCCN2CCN(Cc3ccccc3)CC2)C1=O` (stereo not drawn), for which the Potency is inactive: > 76.9 µM.

With `CCOC(=O)c1[nH]c(C)c(/C(O)=C2\C(=O)C(=O)N(CCCn3ccnc3)C2c2ccncc2)c1C` (stereo not drawn), the Potency is inactive: > 76.9 µM.

Take `CC(C)CNC(=O)CSc1nnc(CN2CCCCCC2=O)n1-c1ccccn1`: the Potency was inactive: > 76.9 µM.

With `COc1ccc(-c2noc(CCCC(=O)O)n2)cc1`, the Potency was inactive: > 76.9 µM.

Regarding `COc1ccc(S(=O)(=O)Nc2cccc(C)n2)c2ccccc12`, the Potency is inactive: > 76.9 µM.

Take `O=C(Nc1cccs1)NC1CCCC1`: the Potency was inactive: > 76.9 µM.

For the compound `Cc1c(C(=O)NCC2CCCO2)oc2ccc(S(=O)(=O)N3CCCC3)cc12` (stereo not drawn), the Potency is inactive: > 76.9 µM.

Regarding `CCc1noc(C)c1C(=O)N1CCOCC1`, the Potency was inactive: > 76.9 µM.

As for `CCOC(=O)c1cccc(NC(=O)CSc2nnc(-c3ccoc3C)n2CC)c1`, the Potency is inactive: > 76.9 µM.

Regarding `CCOC(=O)N1CCC(NC(=O)CSCc2cnn(-c3ccccc3)c2-n2cccc2)CC1`, the Potency was inactive: > 76.9 µM.

With `COc1ccc(C2CC(C(F)(F)F)n3nc(C(=O)NCc4cn(C)nc4C)c(Cl)c3N2)cc1` (stereo not drawn), the Potency was inactive: > 76.9 µM.

In the case of `COC(=O)c1ccccc1NC(=O)c1ccc2c(c1)OCCO2`, the Potency was inactive: > 76.9 µM.

Consider `COC(=O)c1cc(OC)c(OC)cc1NC(=O)c1cccnc1`, for which the Potency was inactive: > 76.9 µM.

For the compound `C=CCN(CC=C)c1nc2ccccc2nc1C(C#N)C(=O)OCCOC` (stereo not drawn), the Potency is inactive: > 76.9 µM.

Regarding `O=C(Cn1c(CC(=O)N2CCCC2)nc2ccccc21)NCc1ccccc1`, the Potency is inactive: > 76.9 µM.

Take `O=C(Oc1cccc(Br)c1)c1cccnc1`: the Potency is inactive: > 76.9 µM.

With `CCC(COC(=O)Nc1cccc(C)c1C)NC(=O)OCC(C)C` (stereo not drawn), the Potency was inactive: > 76.9 µM.

On to `Cc1nn2c(-c3ccncc3)nnc2c2ccccc12`, for which the Potency is inactive: > 76.9 µM.

On to `COc1cccc(-c2noc(N)c2C#N)c1`, for which the Potency is inactive: > 76.9 µM.

With `COC(=O)c1ccc(CSc2nc(-c3ccccc3)cs2)o1`, the Potency was inactive: > 76.9 µM.

Turning to `CCOC(=O)C1=C(C)Nc2nnnn2C1c1c[nH]c2ccccc12` (stereo not drawn), the Potency was inactive: > 76.9 µM.
